Results on five molecules are retold here after PubChem BioAssay (NCI).

The structures appear in SMILES notation.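 Tested at 5 concentrations; 48 h exposure; 96-well plates; endpoints linearly interpolated, else capped at highest concentration. GI50 is the concentration that inhibits growth by half. The concentration for full growth arrest is given as TGI.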

For the experiment, the system named is NCI-H322M lung. Nature of the experiment: NCI tumour cell line growth inhibition, 48 h.
For `CCCn1cnc2c(c1=N)C(c1ccc(F)cc1)c1sc3c(C)cccc3c1O2` (stereo not given), the GI50 was 5.58 µM and the TGI was > 58.9 µM.
With `N#Cc1cccc(NC(=O)c2cc(-c3ccc(F)cc3F)ccc2O)c1`, the GI50 is 2.23 µM and the TGI is 9 µM.
With `CCOC(=O)c1c(NC(=O)c2cccc(C(F)(F)F)c2)sc2c1CCC(=O)C2`, the GI50 was > 100 µM and the TGI was > 100 µM.
In the case of `CN1CCN(c2ccc(Nc3nc(NCCCNS(=O)(=O)c4ccc(C(F)(F)F)cc4)c4sccc4n3)cc2)CC1`, the GI50 was 2.49 µM and the TGI was 6.76 µM.
The matching figures for `CC(C)(O)c1cncc(-c2ccc3ncc(C#N)c(N4CCc5cc(F)c(Cl)cc54)c3c2)c1`: 3.39 µM and > 100 µM.
